# Measured values published in patent US12503451B2, “2-arylthiazole derivative or salt thereof, preparation method therefor, and pharmaceutical composition comprising same” (HEXAPHARMATEC CO., LTD., priority 2020, dated 2025).
# Where a name gives a salt, the structure may show the parent alone. The name of at least one read-out is uncertain.
# Test system: Hela cells
# Experiment: Autophagy-inducing activities (DAPGreen Autophagy Detection Kit)
# Type: cell-based
# Settings: relative to rapamycin = 1
SMILES,Relative fluorescence value (incubation for 4 hours) (500 nM),Relative fluorescence value (incubation for 4 hours) (1000 nM)
"Cc1nc(-c2ccc(OCC(C)C)c(C#N)c2)sc1C(=O)NCC1(N(C)C)CCCCC1 [Example 12, N-((1-(dimethylamino)cyclohexyl)methyl)-2-(3-cyano-4-isobutoxyphenyl)-4-methylthiazole-5-carboxamide hydrochloride]",0.752,1.001
"Cc1nc(-c2ccc(OCC(C)C)c(C#N)c2)sc1C(=O)N1CCCN(C)CC1 [Example 5, N-(4-methylhomopiperazino)-2-(3-cyano-4-isobutoxyphenyl)-4-methylthiazole-5-carboxamide hydrochloride]",0.766,0.713
"CCN(CC)CCNC(=O)c1sc(-c2ccc(OCCN(CC)CC)c(C#N)c2)nc1C.Cl.Cl [Example 24, N-(2-(diethylamino)ethyl)-2-(4-(2-diethylamino)ethoxy-3-cyanophenyl)-4-methylthiazole-5-carboxamide hydrochloride]",0.969,1.167
"Cc1nc(-c2ccc(OCC(C)C)c(C#N)c2)sc1C(=O)NCCN1CCCC1 [Example 8, N-(2-(1-pyrrolidino)ethyl)-2-(3-cyano-4-isobutoxyphenyl)-4-methylthiazole-5-carboxamide hydrochloride]",0.965,0.813
"Cc1nc(-c2ccc(OCC(C)C)c(C#N)c2)sc1C(=O)NCC1(N(C)C)CCCC1 [Example 11, N-((1-(dimethylamino)cyclopentyl)methyl)-2-(3-cyano-4-isobutoxyphenyl)-4-methylthiazole-5-carboxamide hydrochloride]",0.991,0.921
"CCN(CC)CCOc1ccc(-c2nc(C)c(C(=O)NCCN3CCOCC3)s2)cc1C#N.Cl.Cl [Example 26, N-(2-(4-morpholino)ethyl)-2-(4-(2-diethylamino)ethoxy-3-cyanophenyl)-4-methylthiazole-5-carboxamide hydrochloride]",1.718,1.343
"CCN(CC)CCNC(=O)c1sc(-c2ccc(OCC(C)C)c(C#N)c2)nc1C.Cl [Example 1, N-(2-(diethylamino)ethyl)-2-(3-cyano-4-isobutoxyphenyl)-4-methylthiazole-5-carboxamide hydrochloride]",1.022,0.951
"Cc1nc(-c2ccc(OCC(C)C)c(C#N)c2)sc1C(=O)O [2-(3-cyano-4-isobutoxyphenyl)-4-methylthiazole-5-carboxylic acid, reference compound]",0.697,0.590
"Cc1nc(-c2ccc(OCC(C)C)c(C#N)c2)sc1C(=O)NCCN(C)C.Cl [Example 3, N-(2-(dimethylamino)ethyl)-2-(3-cyano-4-isobutoxyphenyl)-4-methylthiazole-5-carboxamide hydrochloride]",0.918,0.963
"Cc1nc(-c2ccc(OCC(C)C)c(C#N)c2)sc1C(=O)NCCN1CCCCC1 [Example 9, N-(2-(1-piperidino)ethyl)-2-(3-cyano-4-isobutoxyphenyl)-4-methylthiazole-5-carboxamide hydrochloride]",0.994,0.949
"Cc1nc(-c2ccc(OCC(C)C)c(C#N)c2)sc1C(=O)NN1CCOCC1 [Example 16, N-(4-morpholinamino)-2-(3-cyano-4-isobutoxyphenyl)-4-methylthiazole-5-carboxamide hydrochloride]",1.663,1.177
"CCN(CC)CCOc1ccc(-c2nc(C)c(C(=O)NC[C@@H]3CCCN3CC)s2)cc1C#N.Cl.Cl [Example 27, N—((S)-2-(1-ethyl)pyrrolidinomethyl)-2-(4-(2-diethylamino)ethoxy-3-cyanophenyl)-4-methylthiazole-5-carboxamide hydrochloride]",1.370,1.004
"CCN(CC)CCOc1ccc(-c2nc(C)c(C(=O)NCCN(C)C)s2)cc1C#N.Cl.Cl [Example 25, N-(2-(dimethylamino)ethyl)-2-(4-(2-diethylamino)ethoxy-3-cyanophenyl)-4-methylthiazole-5-carboxamide hydrochloride]",1.415,1.076
"Cc1nc(-c2ccc(OCC(C)C)c(C#N)c2)sc1C(=O)NC1CCN(Cc2ccccc2)C1 (stereo not drawn) [Example 13, N-(3-(1-benzyl)pyrrolidinyl)-2-(3-cyano-4-isobutoxyphenyl)-4-methylthiazole-5-carboxamide hydrochloride]",0.854,0.836
"Cc1nc(-c2ccc(OCC(C)C)c(C#N)c2)sc1C(=O)NCCN(C(C)C)C(C)C.Cl [Example 2, N-(2-(diisopropylamino)ethyl)-2-(3-cyano-4-isobutoxyphenyl)-4-methylthiazole-5-carboxamide hydrochloride]",0.902,0.929
"Cc1nc(-c2ccc(OCC(C)C)c(C#N)c2)sc1C(=O)NCCN1CCOCC1 [Example 7, N-(2-(4-morpholino)ethyl)-2-(3-cyano-4-isobutoxyphenyl)-4-methylthiazole-5-carboxamide hydrochloride]",1.035,0.873
"Cc1nc(-c2ccc(O)c(C#N)c2)sc1C(=O)NCC1(N(C)C)CCOCC1.Cl [Example 28, N-((4-(dimethylamino)tetrahydro-2H-pyran-4-yl)methyl)-2-(3-cyano-4-hydroxyphenyl)-4-methylthiazole-5-carboxamide hydrochloride]",2.133,1.715
"CO[C@H]1C[C@@H]2CC[C@@H](C)[C@@](O)(O2)C(=O)C(=O)N2CCCC[C@H]2C(=O)O[C@H]([C@H](C)C[C@@H]2CC[C@@H](O)[C@H](OC)C2)CC(=O)[C@H](C)/C=C(\C)[C@@H](O)[C@@H](OC)C(=O)[C@H](C)C[C@H](C)/C=C/C=C/C=C/1C [Rapamycin, rapamycin, reference compound]",1.000,1.000
"CCN(CC)CCOc1ccc(-c2nc(C)c(C(=O)NCCN(C(C)C)C(C)C)s2)cc1C#N.Cl.Cl [Example 23, N-(2-(diisopropylamino)ethyl)-2-(4-(2-diethylamino)ethoxy-3-cyanophenyl)-4-methylthiazole-5-carboxamide hydrochloride]",0.958,0.878
"Cc1nc(-c2ccc(OCC(C)C)c(C#N)c2)sc1C(=O)NCC1(N(C)C)CCOCC1 [Example 10, N-((4-(dimethylamino)tetrahydro-2H-pyran-4-yl)methyl)-2-(3-cyano-4-isobutoxyphenyl)-4-methylthiazole-5-carboxamide hydrochloride]",0.976,1.242
"Cc1nc(-c2ccc(OCC(C)C)c(C#N)c2)sc1C(=O)NCCC1CCCN1C (stereo not drawn) [Example 14, N-(2-(2-(1-methyl)pyrrolidino)ethyl)-2-(3-cyano-4-isobutoxyphenyl)-4-methylthiazole-5-carboxamide hydrochloride]",0.925,1.079
"CCN(CC)CCOc1ccc(-c2nc(C)c(C(=O)NCC3(N(C)C)CCOCC3)s2)cc1C#N.Cl.Cl [Example 29, N-((4-(dimethylamino)tetrahydro-2H-pyran-4-yl)methyl)-2-(4-(2-diethylamino)ethoxy-3-cyanophenyl)-4-methylthiazole-5-carboxamide hydrochloride]",1.896,1.306
"Cc1nc(-c2ccc(O)c(C#N)c2)sc1C(=O)NCCN1CCOCC1.Cl [Example 21, N-(2-(4-morpholino)ethyl)-2-(3-cyano-4-hydroxyphenyl)-4-methylthiazole-5-carboxamide hydrochloride]",2.286,0.916
"CCN(CC)CCNC(=O)c1sc(-c2ccc(O)c(C#N)c2)nc1C.Cl [Example 19, N-(2-(diethylamino)ethyl)-2-(3-cyano-4-hydroxyphenyl)-4-methylthiazole-5-carboxamide hydrochloride]",0.869,1.229
"Cc1nc(-c2ccc(OCC(C)C)c(C#N)c2)sc1C(=O)NN1CCCCC1 [Example 17, N-(1-piperidinamino)-2-(3-cyano-4-isobutoxyphenyl)-4-methylthiazole-5-carboxamide hydrochloride]",1.674,1.046
"Cc1nc(-c2ccc(OCC(C)C)c(C#N)c2)sc1C(=O)NC1CCN(C)CC1 [Example 6, N-(4-(1-methyl)piperidinyl)-2-(3-cyano-4-isobutoxyphenyl)-4-methylthiazole-5-carboxamide hydrochloride]",1.069,0.841
"Cc1nc(-c2ccc(O)c(C#N)c2)sc1C(=O)NCCN(C)C.Cl [Example 20, N-(2-(dimethylamino)ethyl)-2-(3-cyano-4-hydroxyphenyl)-4-methylthiazole-5-carboxamide hydrochloride]",0.758,1.240
